Assay results as given in US6541195B2, “Correction of genetic defects using chemical chaperones” (The Regents of the University of California, priority 1996, dated 2003).

Test system: temperature sensitive mutant of the E1 enzyme (ts20 cells)

Row | SMILES | nuclear p53 staining in the presence of cycloheximide (1 D 39.5° C., then 24 h 39.5° C. with agent plus cycloheximide) | levels of p53 by Western blotting (39.5° C., one day) | relative levels of hsp73 and hsp72 by Western blotting (39.5° C., one day) | levels of p53 nuclear staining (indirect immunofluorescence) (39.5° C., one day, 75 mM TMAO, 0.75 M glycerol) | levels of p53 by Western blotting | levels of p53 nuclear staining (indirect immunofluorescence) | nuclear p53 staining in the presence of cycloheximide | nuclear p53 staining when agent is added to cells already at the nonpermissive temperature | relative levels of hsp73 and hsp72 by Western blotting
1 | OCC(O)CO [glycerol] | strong nuclear staining of p53 was still observed | significantly reduced | appeared identical | significantly reduced |  |  |  |  | 
2 | C[N+](C)(C)[O-] [TMAO, trimethylamine N-oxide] |  |  |  |  | significantly reduced | significantly reduced | strong nuclear staining of p53 was still observed | diminishment, but not complete abolition of nuclear p53 staining | appeared identical

Like-named read-outs stand apart in the source and are kept apart here.
